From the BET-seq Pho4 binding data (Le et al. 2018)
This is one part of the list. Values were computed here from the reads of four pooled replicates and scatter widely.

biological target: T1, Pho4 (S. cerevisiae) (UniProt P07270); assay: relative binding free energy (BET-seq); higher = weaker binding; conditions: reference: library average
T1 sequence: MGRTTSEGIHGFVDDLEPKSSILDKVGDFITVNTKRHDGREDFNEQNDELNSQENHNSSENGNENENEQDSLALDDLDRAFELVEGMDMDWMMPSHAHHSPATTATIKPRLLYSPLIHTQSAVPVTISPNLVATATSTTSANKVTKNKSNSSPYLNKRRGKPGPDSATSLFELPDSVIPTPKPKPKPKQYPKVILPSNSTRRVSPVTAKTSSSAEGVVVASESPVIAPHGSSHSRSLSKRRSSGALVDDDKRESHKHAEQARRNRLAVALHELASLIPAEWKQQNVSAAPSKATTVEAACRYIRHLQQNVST

Row | Sequence | relative binding free energy [kcal/mol]
1 | TATTTCACGTGATACT | 0.16
2 | TCGGGCACGTGCAGTT | -0.17
3 | TTGTTCACGTGATGAG | 0.37
4 | GTAGACACGTGGTGTC | 0.06
5 | CGGGGCACGTGCGATA | -0.08
6 | CTAGACACGTGTTGGG | 0.03
7 | TTTTTCACGTGAAGGG | 0.37
8 | TGTCTCACGTGTGGGA | 0.22
9 | ATTAGCACGTGTGTTC | 0
10 | AAGTACACGTGGTTAT | 0.04
11 | ATCTTCACGTGTGTAT | 0.19
12 | CTGTTCACGTGGGGTG | 0.08
13 | TTGTACACGTGCTGTC | 0.11
14 | CGATTCACGTGGTGAG | 0.34
15 | ACATTCACGTGTGTGT | 0.11
16 | GTTTACACGTGAATTA | 0.39
17 | TCAGGCACGTGTGGCG | -0.06
18 | GACTGCACGTGGTGGG | 0.11
19 | TAGAGCACGTGAGCTT | 0.28
20 | AGTTTCACGTGTGTTC | 0.24
21 | GAATACACGTGGGGGC | 0.03

Row | Sequence | relative binding free energy [kcal/mol]
22 | GTCGGCACGTGGAATT | 0.17
23 | TTTTTCACGTGCTTAC | 0.24
24 | GGTAGCACGTGCAGGG | -0.05
25 | TTTTTCACGTGGTAAG | 0.24
26 | AGATTCACGTGTAATA | 0.26
27 | ATGTGCACGTGTGTGA | 0.01
28 | TGAGGCACGTGAGGCA | 0
29 | GGGGCCACGTGCATGT | -0.23
30 | ATAAGCACGTGGTTAA | -0.22
31 | AAGTGCACGTGGGTTT | -0.2
32 | GGGCGCACGTGACTGG | 0
33 | GTAAGCACGTGTCTGG | -0.12
34 | ATGTTCACGTGGGTCT | -0.04
35 | TAAGGCACGTGCAGTG | -0.15
36 | GGGGGCACGTGGTATG | -0.27
37 | AGAGTCACGTGGGCCT | 0.06
38 | GTTCGCACGTGGTAGT | -0.01
39 | ATAGGCACGTGCGGAT | -0.2
40 | GGTAGCACGTGTACTG | -0.05
41 | CGGATCACGTGGGAAG | 0.13
42 | ATTTGCACGTGGGGGG | 0

Row | Sequence | relative binding free energy [kcal/mol]
43 | GTGCGCACGTGTAATT | 0.05
44 | GAGATCACGTGGGTGC | 0.29
45 | CTATGCACGTGGTGAG | -0.17
46 | GTTGTCACGTGTTCAC | 0.3
47 | CTATGCACGTGGTCGG | -0.2
48 | TGCCTCACGTGTTTGG | 0.14
49 | TTCTGCACGTGTTAGC | 0.07
50 | TCTAGCACGTGTGGGC | 0
51 | AGTTGCACGTGGGTGG | -0.1
52 | CGGGTCACGTGTAAGC | 0.29
53 | ACATTCACGTGTGTGA | 0.25
54 | TGGTGCACGTGTATCG | 0.13
55 | TGGTTCACGTGAGGCT | 0.32
56 | ACAGTCACGTGTGTGA | 0.08
57 | GGGGACACGTGGTAGC | -0.09
58 | CGTTGCACGTGATGAG | -0.01
59 | GGGGGCACGTGGGCGT | -0.16
60 | ATATGCACGTGGGCTG | -0.2
61 | ACTTCCACGTGGTGTT | 0.15
62 | AGGCGCACGTGCATGG | -0.15
63 | AGTCTCACGTGGAGTG | 0.2
